We go through two molecules from patent US5648379A (priority 1990, dated 1997).

For experiment [1], the target named is V. cholerae neuraminidase (Vibrio cholerae serotype O1, UniProt P0C6E9). Put plainly: biochemical.
Experiment [2] deals with parainfluenza viruses. Conditions: in vitro; Palese et al. 1974; cited from earlier work.
The subject of experiment [3] is influenza. Conditions: cited from earlier work.

For the molecule `CC(=O)N[C@H]1[C@H]([C@H](O)[C@H](O)CO)OC(C(=O)O)=C[C@@H]1N=C(N)N` [Compound 7, Ammonium 5-Acetamido-4-guanidino-2,3,4,5-tetradeoxy-D-glycero-D-galacto-non-2-enopyranosonate], the inhibition constant (Ki) (as a rule, the dissociation constant of the complex between target and ligand, obtained from inhibition or displacement) in experiment [1] stood at 450 µM.

With `O=C(O)C1=C[C@H](O)[C@@H](NC(=O)C(F)(F)F)[C@H]([C@H](O)[C@H](O)CO)O1` [FANA, 2-deoxy-2,3-dehydro-N-trifluoroacetyl-neuraminic acid], the “inhibition of multi-cycle replication of parainfluenza viruses” value in experiment [2] is “inhibits multi-cycle replication”. Further, the “inhibition of multi-cycle replication of influenza virus” value in experiment [3] is “inhibits multi-cycle replication”.
